PubChem BioAssay AID504832 (National Center for Advancing Translational Sciences (NCATS), 2011)
In all, about 310,000 compounds went through this assay and about 18,000 (5.8%) were called active. Inconclusive means that the source gave no clear call. Such entries were picked first, then a sample of the others. The call rests on the fitted dose curve; in most records, active means well fitted inhibition curve with a large enough effect; inconclusive means small, poorly fitted or top-dose-only effect, or another doubt; inactive means no such curve, though single readings can be large or run the other way. No potency is given beside an inconclusive call; the fits are too rough.

Assay: Primary qHTS for delayed death inhibitors of the malarial parasite plastid, 48 hour incubation
Conditions: P. falciparum luciferase growth in erythrocytes; series mostly up to 28.7 µM
Procedure, shortened: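 First compound was added to culture medium, then infected red cells at 0.1% parasitemia and 2% hematocrit (final). After incubation at 37 C under 5% CO2, luciferase detection reagent was dispensed and light output recorded.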
Potency means the concentration at half of the fitted maximal effect; tags describe the fitted curve by direction and shape.

Row | SMILES | Potency
1 | Cc1cc(NC(=O)c2ccc3c(c2)OCCO3)ccc1NC(=O)c1ccco1 | inactive
2 | Cc1ccccc1CS(=O)(=O)c1ccc(C(=O)N2CCOCC2)cc1[N+](=O)[O-] | inconclusive [inhibitor, partial curve, poor fit]
3 | CCn1c(SCC(=O)N/N=C/c2ccncc2)nc2ccccc21 | inconclusive [inhibitor, full curve, poor fit]
4 | CN(C)CCCSc1ccccc1NC(=O)/C=C/c1ccccc1 | inconclusive [inhibitor, single point]
5 | Cc1ccc(CN2CN(S(=O)(=O)c3cccs3)c3nc4ccccc4nc32)cc1 | inconclusive [inhibitor, single point]
6 | O=C(O)c1ccccc1C(=O)N1N=C2/C(=C/c3cccc([N+](=O)[O-])c3)CCCC2C1c1cccc([N+](=O)[O-])c1 (configuration not stated) | inconclusive [inhibitor, single point]
7 | O=c1oc2ccccc2c(N2CCCCC2)c1CN1CCCCC1 | inconclusive [inhibitor, partial curve, poor fit]
8 | N=c1ccn(Cc2ccccc2Cl)cc1 | active: 4.65 µM
9 | CC(C)NC(=O)N1CCC(n2nccc2NC(=O)CCOc2ccccc2)CC1 | inactive
10 | O=C(Nc1cc(Br)ccc1O)c1cc(-c2cccs2)on1 | inconclusive [inhibitor, full curve]
11 | Cn1c(SCc2ccccc2)nnc1C1CCCNC1 (configuration not stated) | inactive
12 | CN(Cc1nc2ccccc2c(=O)[nH]1)Cc1nc2ccsc2c(=O)[nH]1 | inconclusive [inhibitor, single point]
13 | COc1ccccc1NC(=O)NC1CCS(=O)(=O)C1 (configuration not stated) | inactive
14 | CC1=NNC(=O)/C1=C\c1cn(-c2ccccc2)nc1-c1ccc(Cl)cc1 | inconclusive [inhibitor, full curve]
15 | O=C(c1ccccc1)N1CCN(CC(O)COc2cccc3ccccc23)CC1 (configuration not stated) | inconclusive [inhibitor, full curve, poor fit]
16 | Cc1ccc(/C=N/NC(=O)CN(Cc2ccccc2)S(=O)(=O)c2ccc3c(c2)OCCO3)cc1 | inconclusive [inhibitor, partial curve]
17 | O=[N+]([O-])c1cc(Oc2cccnc2)cc([N+](=O)[O-])c1 | inconclusive [inhibitor, single point]
18 | COC(=O)c1ccc(C23CC4(C2)[C@H](CN(Cc2ccc(-c5ccccc5)cc2)[C@@H]4c2ccccc2)C3c2ccc(C(F)(F)F)cc2)cc1 (some centres not stated) | inconclusive [inhibitor, single point]
19 | COc1ccc(-c2[nH]c(-c3ccc(Cl)cc3)nc2SCC(=O)Nc2nccs2)cc1 | inconclusive [inhibitor, single point]
20 | Cc1cc(C)n2nc(SCc3nnc(-c4ccccc4Br)o3)nc2n1 | inconclusive [inhibitor, partial curve, poor fit]
21 | O=C(Nc1nnc(-c2ccccc2)o1)C1CCCN1S(=O)(=O)c1cccs1 (configuration not stated) | inactive

Row | SMILES | Potency
22 | CC(C)c1c(O)nc(SCCOc2ccc(Cl)cc2)[nH]c1=O | inconclusive [inhibitor, single point]
23 | COc1ccc(NC(=O)Oc2ccccc2)cc1Cl | inactive
24 | CCCCn1c(=O)[nH]c(=O)c2c1nc(-c1cc(Br)ccc1OC)n2C | inconclusive [inhibitor, full curve]
25 | COc1ccc(-n2c(SCC(=O)O)nnc2-c2ccc(NC(=O)c3ccccc3)cc2)cc1 | active: 5.22 µM
26 | CCN(CC)c1ccc(/C=C(\C#N)c2ccccn2)cc1 | inactive
27 | Cc1sc2nc(COC(=O)c3ccc(Cl)c(N)c3)[nH]c(=O)c2c1C | inconclusive [inhibitor, single point]
28 | CCOc1cc(/C=N/NC(=O)C(=O)NCc2ccc3c(c2)OCO3)ccc1OCC(=O)N1CCOCC1 | inactive
29 | COc1ccc(C(=O)NC2CCCCCC2)cc1S(=O)(=O)N1CCOCC1 | inactive
30 | CN(C)c1ccc(C(C(=O)NCc2ccccc2)N(Cc2cccnc2)C(=O)c2snc(C(N)=O)c2N)cc1 (configuration not stated) | inconclusive [inhibitor, partial curve]
31 | CC(C)N(C(=O)CSc1nnc(NC2CC2)s1)c1ccccc1 | inconclusive [inhibitor, partial curve]
32 | CC(N=Cc1cccc(O)c1O)c1ccccc1 (configuration not stated) | inconclusive [inhibitor, single point]
33 | Cc1ccc(-c2csc(N/N=C/C=C/c3ccccc3)n2)cc1 | inconclusive [inhibitor, single point]
34 | COc1ccc(S(=O)(=O)N[C@@H](Cc2ccc(Cl)cc2)C(=O)N2CC[C@@]3(O)CCCC[C@H]3C2)cc1 | inconclusive [inhibitor, partial curve]
35 | O=C(Cc1nc(-c2ccc(Br)s2)cs1)NCCN1CCOCC1 | inconclusive [inhibitor, partial curve, poor fit]
36 | COc1nc(/C=C/N(C)C)c([N+](=O)[O-])c(OC)n1 | inconclusive [inhibitor, single point]
37 | CC12CCC(C(=O)Nc3cc(Cl)ccc3Cl)(C/C1=N\O)C2(C)C (configuration not stated) | inactive
38 | N#Cc1ccc(CSc2nnc(-c3cccs3)n2-c2ccccc2)cc1 | inconclusive [inhibitor, single point]
39 | Cc1ccccc1C(=O)Nc1nnc(CC(=O)N/N=C/c2cn(Cc3ccccc3)c3ccccc23)s1 | inconclusive [inhibitor, single point]
40 | CC(C)CNC(=S)N(Cc1ccco1)Cc1cc2cc3c(cc2[nH]c1=O)OCCO3 | inconclusive [inhibitor, partial curve]
41 | C=CCn1cc(C(=O)N2CCc3ccccc3C2)c(=O)c2cc(S(=O)(=O)N(CC)CC)ccc21 | inconclusive [inhibitor, partial curve]
42 | FC(F)(Cl)c1nnc2ccc(Cl)nn12 | inconclusive [inhibitor, single point]
